Results on 108 compounds are retold here after PubChem BioAssay AID488969 (Vanderbilt High Throughput Screening Facility, 2010).

In all, about 110,000 compounds were measured (“z-score”: median about -0.1, highest 2% from about 2 on). This is one part of the list.

For this test, the target named is Metabotropic glutamate receptor 8 (Rattus norvegicus) (UniProt P70579). As to the kind of experiment: mGluR8 Gi/Go-coupled signaling modulation – cell-based, rat, thallium flux, HTS, primary screen (AID 488969). The note with it: HEK293 rat mGluR8, GIRK (G protein-gated inwardly rectifying potassium channel) thallium flux, FluoZin2; at 10 µM; stronger effect = higher value; submaximal glutamate (EC20) added with thallium.
Sequence of UniProt P70579 (P70579 whole entry, looked up): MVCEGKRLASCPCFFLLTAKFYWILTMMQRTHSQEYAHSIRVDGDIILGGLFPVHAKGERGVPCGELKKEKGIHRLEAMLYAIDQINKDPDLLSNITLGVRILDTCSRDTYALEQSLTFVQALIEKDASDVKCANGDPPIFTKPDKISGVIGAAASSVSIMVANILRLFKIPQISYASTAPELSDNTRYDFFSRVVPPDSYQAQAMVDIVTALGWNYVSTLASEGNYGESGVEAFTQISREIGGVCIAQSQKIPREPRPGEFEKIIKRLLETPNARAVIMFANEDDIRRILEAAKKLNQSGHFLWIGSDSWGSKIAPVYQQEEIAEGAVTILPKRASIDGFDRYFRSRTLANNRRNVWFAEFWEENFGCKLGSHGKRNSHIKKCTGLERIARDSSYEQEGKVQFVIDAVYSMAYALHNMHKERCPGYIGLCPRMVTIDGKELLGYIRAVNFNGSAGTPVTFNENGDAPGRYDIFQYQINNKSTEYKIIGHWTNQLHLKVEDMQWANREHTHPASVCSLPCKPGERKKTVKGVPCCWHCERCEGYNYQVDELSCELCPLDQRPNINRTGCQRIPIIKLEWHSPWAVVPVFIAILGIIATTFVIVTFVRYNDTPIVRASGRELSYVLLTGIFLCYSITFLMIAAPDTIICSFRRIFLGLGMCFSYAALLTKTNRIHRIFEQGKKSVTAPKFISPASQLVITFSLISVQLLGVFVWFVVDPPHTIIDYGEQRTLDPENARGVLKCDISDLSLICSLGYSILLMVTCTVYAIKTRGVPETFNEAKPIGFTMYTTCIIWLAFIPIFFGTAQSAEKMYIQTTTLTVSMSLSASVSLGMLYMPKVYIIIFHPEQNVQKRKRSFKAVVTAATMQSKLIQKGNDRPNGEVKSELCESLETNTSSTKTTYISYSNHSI
Compound `O=S(=O)(Cc1cc(Sc2ccccc2)nc(-c2ccccc2)n1)c1ccccc1` registered a z-score of -0.215.
Compound `FC(F)(F)c1ccc(N2CCN(c3ncnc4c3nnn4Cc3ccccc3Cl)CC2)cc1` yielded a z-score of 0.952.
Turning to `Cn1c(SCC(=O)N2c3ccccc3CCc3ccccc32)nnc1-c1cc2ccccc2cc1O`, the z-score is -0.13.
The result for `COCCOC(=O)C1=C(N)Oc2c(oc(CO)cc2=O)C1c1c(F)cccc1Cl` (stereo not drawn) reads -1.24; that for `COc1cccc(NC(=O)CSc2nc3ccccc3cc2Cc2ccccc2)c1`, -0.102; that for `CCOc1ccc(CCNC(=O)COC(=O)c2nc3nc(C)cc(C)n3n2)cc1OCC`, -0.947.
Compound `Cn1c(N)c(C(=O)COC(=O)c2ccc(Cl)c(S(=O)(=O)N3CCCCC3)c2)c(=O)n(C)c1=O` returned a z-score of 0.532.
The figure for `Cc1ncc(CCl)c2c1OC(C)(C)OC2` is -0.259; for `O=C(Cn1ncnn1)OCc1ccccc1Cl` it is -0.23.
For `Cn1c(=O)c2c(nc(CN3CCN(C(=O)c4ccco4)CC3)n2Cc2ccccc2)n(C)c1=O`, the z-score was 0.297.
The result for `Cc1cc(N=Cc2c(O)ccc3ccccc23)no1` reads 0.291; that for `Cc1cccnc1NCC(O)COc1ccccc1` (stereo not drawn), 0.357.
The result for `O=C(CSc1nc2ccccc2c(=O)n1NC(=O)c1ccccc1)c1ccc(Cl)cc1` reads -0.559; that for `Cc1ccc(OCC(=O)N(C)Cc2ccccc2)c([N+](=O)[O-])n1`, -0.265.
The compound `COc1ccc(NC(=O)C2C3CCC4C(CCC32)C4(Cl)Cl)cc1` (stereo not drawn) registered a z-score of -0.0986.
The compound `COc1ccc2cnnc(SCC(=O)Nc3ccccc3)c2c1OC` came in with a z-score of -0.103.
Turning to `CCOC(=O)C(C(=O)Nc1nccs1)C1CCCCC1` (stereo not drawn), the z-score was -0.538.
The figure for `COc1ccc(-n2c3c(cc(C(=O)N4CCCCC4)c2=O)C(=O)CC(C)(C)C3)cc1` is -0.305.
The figure for `CN(C)S(=O)(=O)N(CC(=O)N(Cc1ccccc1)Cc1ccccc1)c1ccccc1` is -0.385.
The figure for `COc1ccc(OC)c(N2C(N)=NC(N)=NC23CCCC3)c1` is 0.00339; for `O=C(c1cncc(Br)c1)N1CCN(c2ccc([N+](=O)[O-])cc2)CC1` it is -0.309; for `Cc1ccc(NC(=O)[C@@H]2CCCN2S(=O)(=O)c2ccccc2C(F)(F)F)cc1S(=O)(=O)N1CCOCC1` it is -0.247.
Turning to `O=C(NCC1CCCO1)C(c1cccnc1)N(C(=O)Cc1cccs1)c1ccccc1` (stereo not drawn), the z-score is -0.165.
As for `COc1cc(C(=O)Nc2nc(-c3cccs3)cs2)cc(OC)c1OC`, the z-score was -0.472.
The result for `COc1cccc(CNC(=O)c2cc3c(C)nc4ccccc4c3o2)c1` reads -0.378; that for `Cc1ccc(/C=C/C2=NN(Cc3ccccc3)C(=O)CC2)cc1`, -0.149.
The figure for `CCOc1ccccc1-c1nc(C(N)=O)c2[nH]c(=O)n(-c3cccc(C)c3)c2n1` is -1.43; for `CN1CCN(NC(=O)c2ccc(Cl)cc2Cl)CC1` it is 0.0866.
`CCOC(=O)CSC1=C(C#N)C(c2ccc3c(c2)OCO3)CC(=O)N1` (stereo not drawn) yielded a z-score of -0.737.
The figure for `CCOC(=O)c1ccccc1NC(=O)CSc1nnc(COc2ccccc2C)n1C` is -1.24; for `Cc1ccc(/C=C(\NC(=O)c2ccccc2)C(=O)NC(Cc2ccccc2)C(=O)O)cc1` (stereo not drawn) it is -0.0603; for `O=C(N/N=C/c1ccncc1)c1cc2ccccc2o1` it is -0.224.
`COc1cc(C(=O)N[C@H](C(=O)NC2CCCCCC2)C(C)C)cc(OC)c1OC` had a z-score of -0.25.
`Cn1c(N)c(C(=O)COC(=O)c2ccco2)c(=O)n(C)c1=O` yielded a z-score of -0.0655.
As for `C=C(C)C1CC=C(CN2CC(C)OC(C)C2)CC1` (stereo not drawn), the z-score was -0.037.
The result for `COc1ccc(C(C)=O)cc1CSc1nc2ccccc2c(=O)n1-c1cccc(C)c1` reads -0.349.
As for `CC1=C(CC(=O)c2ccc(Cl)cc2)C(=O)c2ccccc2C1=O`, the z-score is -0.578.
The result for `Cc1nn(C)cc1C(C(=O)NC1CCCCC1)N(C(=O)Cc1cccs1)c1ccc(C(C)C)cc1` (stereo not drawn) reads -0.432; that for `Cc1ccc(C(=O)Nc2cc(Cl)ccc2OC(=O)c2ccc(C)cc2)cc1`, -0.214; that for `Cc1ccc(C2C(C#N)=C(N)Oc3c2sc2ccccc32)o1` (stereo not drawn), -0.552.
The result for `CCn1c(=O)cc(SCC(=O)Nc2ccc(Cl)cc2)c2ccccc21` reads -0.0948; that for `CN1C(=O)C2ON(c3ccccc3)C(c3cccs3)C2C1=O` (stereo not drawn), -0.0304.
The figure for `O=C(Nc1cccc(Cl)c1)Nc1ccccc1C(=O)NCc1ccco1` is -0.386; for `N#Cc1cc(-c2ccccc2)oc1NC(=O)c1ccco1` it is -0.229; for `CC(/C=C/C(=O)c1ccc(C)cc1)=C\c1ccccc1` it is 0.454.
Consider `CN1/C(=C\C=N\NC(=O)c2ccc(O)cc2)C(C)(C)c2ccccc21`, for which the z-score was -0.895.
The result for `O=C(c1ccccc1)c1cnc(Nc2ccc(Cl)c(Cl)c2)s1` reads -0.0695.
The result for `CCn1c(SCc2ccc(C(=O)Nc3cc(C)cc(C)c3)cc2)nnc1-c1ccncc1` reads -0.36.
For the compound `O=C(Nc1nc2ccc(F)cc2s1)C1CCN(S(=O)(=O)c2cc([N+](=O)[O-])ccc2Cl)CC1`, the z-score is -0.00866.
Compound `Cc1ccc2[nH]cc(C(=O)NCc3cccs3)c(=O)c2c1` registered a z-score of 0.0178.
The result for `O=C(Oc1ccc(-c2cn3c(n2)SCC3)cc1)c1ccccc1` reads 1.09; that for `CCCCNC(=O)c1c(C)cc(=O)oc1C`, 0.103.
On to `CN(C)S(=O)(=O)c1cccc(C(=O)N2CCN(Cc3ccccc3)CC2)c1`, for which the z-score was determined as 1.37.
The figure for `O=c1c2ccccc2nc2ccc(N3CCOCC3)nn12` is -0.0479; for `Cc1cc2c(ncn2Cc2ccccc2)c([N+](=O)[O-])c1C` it is -0.611.
The result for `COc1cccc(C(C#N)N2N=C(C)CC2(C)C)c1O` (stereo not drawn) reads -0.121.
The figure for `O=C(O)C1C2C=CC(C2)C1C(=O)Nc1ccc(C(=O)N2CCCCC2)c(Cl)c1` (stereo not drawn) is 0.0164.
Compound `CCOc1ccc(C(=S)NC2CCCCC2)cc1OC` displayed a z-score of -0.0762.
The result for `Cc1cc(C)c[n+](-c2nc([O-])sc2C=O)c1` reads 0.00581; that for `CCn1cc(C(=O)NCC2COc3ccccc3O2)c2cc(OC)c(OC)cc2c1=O` (stereo not drawn), -0.548.
The figure for `CC(C)(C)C(=O)NC(=S)N1CCCC1` is -0.128.
`Cc1cc(-c2n[nH]c(=S)n2-c2ccccc2)nn1C` gave a z-score of -0.256.
The figure for `COc1cc(/C=C2\C(=O)ON=C2c2ccccc2)cc(OC)c1OC` is -0.0771; for `COc1ccc2nc(SCc3cccnc3)c(C#N)cc2c1` it is -0.0679.
Take `CC(NC(=O)Nc1ccccn1)N1C(=O)C2C3C=CC(C3)C2C1=O` (stereo not drawn): the z-score was determined as 1.82.
For the compound `CCC(=O)Nc1c(OC(=O)CC)ccc2c(C)cc(=O)oc12`, the z-score was 0.0482.
On to `CC1=C/C(=C\c2ccc(Br)o2)C(=O)O1`, for which the z-score is -0.119.
Regarding `O=C(CN1CCN(c2ncccn2)CC1)NCc1ccccc1`, the z-score came to 0.306.
As to `Cc1ccc(CNC(=O)[C@@H]2CCC(=O)N2Cc2ccco2)cc1`, the z-score is -0.0544.
Take `COc1ccc(Nc2nc(C(F)(F)F)nc(C)c2C#N)cc1`: the z-score stood at 0.692.
On to `CC(Sc1ccc2c(c1)OCCO2)C(=O)Nc1ncc(Cl)cc1Cl` (stereo not drawn), for which the z-score was -0.106.
Compound `Cc1ccc(CC2CC(=O)N(Cc3ccco3)C2=O)cc1` (stereo not drawn) came in with a z-score of -0.132.
The result for `Cc1ccc(O)c(-c2cc(C(=O)Nc3ccc(S(=O)(=O)Nc4nc(C)cc(C)n4)cc3)[nH]n2)c1` reads -0.0927.
The figure for `Cc1cc([N+](=O)[O-])cc(C)c1OCC(=O)N/N=C/c1ccc(OC(=O)c2ccccc2)cc1` is -0.0495; for `COC(=O)c1nc2n(n1)C(c1cccc(Cl)c1)C1=C(CC(C)(C)CC1=O)N2` (stereo not drawn) it is -0.452.
In turn, `O=C(CCC(=O)OCc1ccc(Cl)cc1)Nc1cccc([N+](=O)[O-])c1` had a z-score of 0.0499.
The result for `O=C(O)c1ccc(COc2c(F)c(F)cc(F)c2F)o1` reads -0.477.
The compound `Cc1c(NC(=O)c2nn3c(c2Br)NC(c2ccccc2)CC3C(F)(F)F)c(=O)n(-c2ccccc2)n1C` (stereo not drawn) gave a z-score of -0.0432.
With `CCOc1ccccc1NC(=O)CN1CCC(NC(=O)c2ccccc2)CC1`, the z-score is -0.698.
The result for `Cc1ccc(NC(=O)COC(=O)C2COc3ccccc3O2)cc1S(=O)(=O)N1CCOCC1` (stereo not drawn) reads -0.314; that for `Nc1ccccc1Nc1cc(-c2cccc(Cl)c2)nn1-c1ccccc1`, 0.148.
`CCCn1c(CCC(=O)O)ccc1-c1ccc(F)cc1` had a z-score of -0.0413.
The result for `COc1ccc(-n2nnnc2SCC(=O)Nc2nnn(C)n2)cc1` reads -0.105; that for `CCC(=O)N(CCc1ccccc1)Cc1cc2cc3c(cc2[nH]c1=O)OCO3`, 0.0713; that for `COc1ccc2oc(=O)c(C(=O)O)cc2c1`, 0.0264.
The figure for `CC1(C)Cc2c(sc3c2C(=O)N(c2ccccc2)C2=NCCCN23)CO1` is 0.254; for `Cc1ccc(NCC(=O)N/N=C/c2ccc(-c3cccc(C(F)(F)F)c3)o2)cc1` it is -0.0535.
`CCCc1nnc(NC(=O)CCC(=O)NCCc2ccc(OC)c(OC)c2)s1` had a z-score of -0.147.
Turning to `Cc1cccc(-c2nnc(-c3ccccc3)o2)c1`, the z-score came to 0.474.
For `O=C(O)c1cc(-c2ccccc2)n(-c2ccccc2C(=O)O)n1`, the z-score was 0.306.
The result for `CCOCC(=O)Nc1nnc(COC)s1` reads -0.129; that for `CCOc1ccc(-n2c(SC(C)C(=O)OC)nc3c(c2=O)SCC3)cc1` (stereo not drawn), -1.05; that for `O=C(NC1CCCCCC1)c1cccnc1Sc1ccccc1`, -0.0826.
The figure for `CCOc1ccc(S(=O)(=O)N2CCC(C(N)=O)CC2)c2ccccc12` is 1.35.
In turn, `COc1cccc(NC(=O)CSc2nnc(-c3cccs3)n2C)c1` displayed a z-score of -0.173.
The figure for `Cc1cc(C)n(-c2ccc(C(=O)OCC(=O)NCc3ccc(F)cc3)cc2)n1` is 0.122; for `COc1ccc(Cn2nnnc2C(c2ccncc2)N2CCOCC2)cc1` (stereo not drawn) it is 0.39; for `CN1CCN(C(=O)Cn2c(C(F)(F)F)nc3ccccc32)CC1` it is 0.0745.
Turning to `Cc1cc(N2CCN(c3ccccn3)CC2)n2c(nc3ccccc32)c1C#N`, the z-score was -0.235.
The result for `Cc1sc(NC(=O)Cn2c(=O)oc3ccccc32)nc1-c1ccc(Cl)cc1` reads -0.249.
The figure for `COc1ccc(N(CN2C(=O)c3ccccc3C2=O)C(=O)COc2ccc(Cl)cc2Cl)cc1` is -0.172.
The result for `Cc1c(NC(=O)c2ccccc2F)c(=O)n(-c2ccccc2)n1C` reads -0.242; that for `O=C(c1cnccn1)N1CCN(S(=O)(=O)c2ccc3ccccc3c2)CC1`, 0.0311.
`CC1CCc2nn(CC(=O)Nc3c(F)cc(F)cc3Br)cc2C1` (stereo not drawn) displayed a z-score of -0.123.
The result for `Cc1nn(Cc2ccccc2Cl)c(C)c1NC(=O)c1noc2c1CCCCC2` reads -0.931; that for `CCCn1c(=O)c(F)cn(Cc2ccc(OC)c([N+](=O)[O-])c2)c1=O`, 0.209.
Turning to `Cc1cc(C(=O)N/N=C/c2cccc([N+](=O)[O-])c2)c(C)o1`, the z-score was determined as 0.0137.
The figure for `Cn1cnc(C(F)(F)F)c1-c1ccc([N+](=O)[O-])cc1` is -0.0893.
